From PubChem BioAssay AID1508623 (National Center for Advancing Translational Sciences (NCATS), 2021)
In all, about 48,000 compounds went through this assay and about 450 (0.94%) were called active. Inconclusive results (about 19%) are left out. Calls follow the shape of the dose curve; as a rule, active = well fitted inhibition curve with a large enough effect; inconclusive = small, poorly fitted or top-dose-only effect; inactive = no such curve, though single readings can be large or run the other way. This is one part of the list.

Experiment: Primary qHTS for Identification of Small Molecule Inhibitors of Huntingtin Promoter Activity; also: nearly all actives have a fitted effect of over 50% in size
Details: HEK293 HTT promoter firefly luciferase reporter (activity 0% = vehicle and -100% = no light), 24 h; series mostly up to 57.5 µM; activity change, negative = inhibition: at the top concentration
Procedure, shortened: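 Firefly luciferase readout (Dual-Glo, 10 min RT) after 24 h, 37 °C compound exposure (final up to 57.5 uM) of HEK293 reporter cells cultured 24 h beforehand; PTC124 at 50 uM final as control inhibitor; activity scaled vehicle 0%, zero RLU -100%.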

Activity change, negative = inhibition, inactive:
COCCN1CCc2nc(SCC(=O)Nc3ccc(Br)cc3)[nH]c(=O)c2C1 -4.14%, Cc1noc(/C=C/N(C)C)c1S(=O)(=O)N1CCCC(C(=O)Nc2ccc(F)cc2F)C1 (configuration not stated) -6.8%, NC(=O)C1(N2CCCCC2)CCN(C(=O)Nc2ccc(C(F)(F)F)cc2)CC1 -10%, Cc1ccc(NCc2ccccc2-c2nnc(-c3ccccc3Cl)o2)c(C)c1 -3.74%, CC(C)(Oc1ccc(Cl)cc1)C(=O)O -1.17%, CN1CCCN=C1COC(=O)C(O)(c1ccccc1)C1CCCCC1 (configuration not stated) 4.38%, O=c1cc(-c2ccccc2)c2cc(Cl)c3c(c2o1)CN(Cc1ccccc1)CO3 -12.8%, Cc1ccc2c(c1)c1c(c(=O)n(-c3ccccc3C)c(=O)n1CC(=O)NCc1ccccc1)n2C -7.62%, COc1ccccc1NC(=O)Cn1c(=O)n(Cc2ccco2)c(=O)c2cccnc21 -15.8%, Cc1ccc(OCCCn2c(CCNC(=O)C3CCCCC3)nc3ccccc32)c(C)c1 1.08%, COc1ccc(OC)c(NC(=O)CN2C(=O)c3ccccc3Sc3ccc(C(=O)N4CCCC4)cc32)c1 0.27%, COc1ccc(N(Cc2cccs2)C(=O)Nc2ccccc2)cc1 -12.7%, COc1ccccc1-c1nnc(SCCOc2ccccc2C)o1 -5.89%, CCc1cccc(CC)c1NS(=O)(=O)c1ccc2c(c1)CCN2C(=O)C1CC1 -22.1%, CCOC(=O)c1cc(-c2ccc(OC)c(S(=O)(=O)Nc3ccc(OC)cc3OC)c2)on1 1.14%, Cc1ccc(CNC(=O)c2nnc(Cc3cccc(F)c3)o2)cc1 -14%, COC(=O)c1sccc1S(=O)(=O)N1CCN(c2ccccc2OC)CC1 -3.6%, COc1ccc(N2CC(C(=O)Nc3ccc(NC(C)=O)cc3)CC2=O)cc1 (configuration not stated) 2%, COCCCNC(=O)C(=O)NCC(c1ccc2c(c1)OCO2)N1CCOCC1 (configuration not stated) -7.43%, CCN1C(=O)c2ccccc2S(=O)c2ccc(C(=O)NCc3ccc(F)cc3)cc21 (configuration not stated) -21.7%, COc1ccc(NC(=O)C2=C(C)Nc3nc(CCCO)nn3C2c2ccc(O)cc2)cc1 (configuration not stated) -14.1%, Cc1ccc(C)c(S(=O)(=O)c2nnn3c2nc(N2CCOCC2)c2sccc23)c1 -7.79%, CC(C)N(Cc1ccccc1)c1ncnc2c1nnn2C -9.57%, CCOc1ccc(C(c2c(O)cc(C)n(CCOC)c2=O)N2CCN(c3ccccc3F)CC2)cc1 (configuration not stated) 1.27%, CCc1cccc(NC(=O)CCc2c(C)nc3c(c2C)c(=O)n(C)c(=O)n3C)c1 -20.2%, Cc1ccc(CNC(=O)CCSCc2ccccc2F)cc1 0.365%, Cc1cc(C)c2oc(C(=O)Nc3sc4c(c3C(=O)NCc3ccco3)CCCC4)cc(=O)c2c1 0%, Cc1ccc(Nc2c(-c3cc(Br)ccc3F)nc3cc(C)ccn23)cc1 -25.2%, Cc1ccc(NC(=O)c2cccc(N3CCCS3(=O)=O)c2)cc1 9.99%, COc1ccccc1NC(=O)Cn1c(=O)n(-c2ccc(C)cc2)c(=O)c2ccc(C(=O)NCc3ccco3)cc21 4.45%, CCOc1ccc(NC(=O)N2CCC(CN3CCc4ccccc4C3)CC2)cc1 -24.4%, CCOCCCNC(=O)c1ccc(NC(=O)N2CCCCc3ccccc32)cc1 -17.6%, COc1ccccc1N1CCN(c2ccc(=O)n(CC(=O)Nc3ccc(F)c(F)c3)n2)CC1 -20.7%, Cc1c(NC(=O)c2ccc(Cl)cc2)cc(C(C)C)c(O)c1S(=O)(=O)c1ccc(Cl)cc1 -1.23%, O=C(CCn1c(=O)c2cccn2c2ccc(F)cc21)NCCc1ccccc1 -6.67%, Cc1ccc(C)c(Nc2cc(C(=O)NC3CCCCC3)c3ccccc3n2)c1 7.1%, CCC(=O)N1CCc2cc(CNC(=O)C(CC)c3ccccc3)ccc21 (configuration not stated) -14.5%, Cc1ccccc1Cn1c(=O)n(CCc2ccccc2)c(=O)c2c(C)c(C)sc21 4.75%, COc1cccc(OCCSc2nc3ccccc3n2CC(=O)N2CCCCC2)c1 -26.3%, COc1cccc(-n2cc(C(=O)NCc3ccccc3OC)c3ccccc3c2=O)c1 -10.8%, COc1ccc(-c2nc(CN3CCC(C(=O)NCCCOC(C)C)CC3)c(C)o2)cc1OC -0.477%, CCc1cc2c(cc3c(=O)n(CC(=O)NCCc4ccc(OC)c(OC)c4)ncn32)s1 -9.62%, COC(=O)c1cc(S(=O)(=O)NCC2CCN(Cc3cccc(F)c3)CC2)c[nH]1 -14.8%, O=C(CCn1ccc2cc(S(=O)(=O)N3CCCC3)ccc21)NCc1cccc(F)c1 -22.7%, COC(=O)CSc1nc(-c2ccc(F)cc2)cc(C(F)(F)F)n1 -22.6%, COc1ccc(OC)c(C2N=C(N)Nc3nc4ccccc4n32)c1 (configuration not stated) -11.9%, COc1cc(OC)c(C2Nc3ccccc3-c3nnc(SCc4ccccc4)nc3O2)cc1OC (configuration not stated) 5.79%, COc1ccc(NC(=O)Cn2c(=O)n(Cc3nc(C)no3)c(=O)c3cc4c(cc32)OCO4)cc1OC -14.9%, Cc1cccc(C)c1-n1ncc(C(=O)NCCN2CCOCC2)c1C1CCN(C(=O)OC(C)(C)C)CC1 -23.3%, Cc1nc(-c2ccc(Cl)cc2)sc1CCNC(=O)c1ccc(C(F)(F)F)cc1 -10.4%, Cc1ccc(C)c(NC(=O)CCn2nc(C)c3c(C)n(-c4ccccc4)nc3c2=O)c1 -18%, COc1ccccc1C(=O)OCc1cc(=O)n2nc(C3CC3)sc2n1 20.7%, CCC1CCc2nc3sc(C(=O)Nc4ccc(F)c(Cl)c4)c(N)c3cc2C1 (configuration not stated) 2.01%, Cc1ccc(C)c(NC(=O)c2ccc3c(c2)CCN3S(C)(=O)=O)c1 -1.44%, COc1ccccc1CNC(=O)CSc1ncc2c(n1)-c1ccc(Cl)cc1N(Cc1ccccc1)S2(=O)=O -1.72%, COc1ccc(NC(=O)C(c2ccc(C)cc2)N(C)C(=O)Cc2cccs2)cc1 (configuration not stated) 2.21%, Cc1c(Cl)cccc1NC(=O)C(C)n1c(=O)cc(-c2ccccc2)c2c(C)nn(C)c21 (configuration not stated) 8.23%, O=C(Cn1c(-c2cccs2)cc2cc(Cl)ccc21)N1CCN(c2ccccc2)CC1 -13.5%, O=C(Cn1c(=O)c2cc(Cl)ccc2n2nncc12)Nc1ccccc1 -7.99%, O=C(CC(c1cccs1)N1Cc2ccccc2C1=O)Nc1ccc(F)c(Cl)c1 (configuration not stated) -21.1%, C=CCC(CC=C)(CNC(=O)C(=O)Nc1cccc(C(F)(F)F)c1)c1ccccc1 -2.54%, Cc1cccc(-n2c(=O)c3c(c4cc(C)ccc4n3C)n(CC(=O)NCCC3=CCCCC3)c2=O)c1 -11.7%
